Some of the results follow. Rule as the data show it: active = 3.2 or more and inactive = the rest. Only a few entries rise above the background.
What was measured:
Assay in all cases: enrichment score (SH2-bound / input frequency) (ratio); bacterial display of known human phosphotyrosine sites (pTyr-Var adds point mutants) read by sequencing; higher = stronger binding; tyrosines were phosphorylated by kinases first
Conditions in all cases: peptide library: pTyr-Var
SHP2 C-SH2 domain E139D = molecular target: SHP2 C-SH2 domain E139D
[1] = molecular target: SHP2 C-SH2 domain wild-type
SHP2 N-SH2 domain L43F = molecular target: SHP2 N-SH2 domain L43F
SHP2 N-SH2 domain T42A = molecular target: SHP2 N-SH2 domain T42A
SHP2 N-SH2 domain T52S = molecular target: SHP2 N-SH2 domain T52S
[2] = molecular target: SHP2 N-SH2 domain wild-type

Measured: enrichment score
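Also: displayed peptides selected on beads carrying the immobilized SH2 domain, with library peptides lacking any tyrosine serving as negative controls.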

DQLVKHGVNPG [TMPO_Y127_Y127H]
inactive: SHP2 C-SH2 domain E139D 0.692 | [1] 0.821 | SHP2 N-SH2 domain L43F 0.838 | SHP2 N-SH2 domain T42A 0.687 | SHP2 N-SH2 domain T52S 0.917 | [2] 0.812

STDDGCIDLQF [TMEM230_Y29_Y29C]
inactive: SHP2 C-SH2 domain E139D 0.476 | [1] 0.411 | SHP2 N-SH2 domain L43F 0.599 | SHP2 N-SH2 domain T42A 0.435 | SHP2 N-SH2 domain T52S 0.521 | [2] 0.587

QSGGQYSSQGL [TNNI3K_Y788_A785G]
inactive: SHP2 C-SH2 domain E139D 0.554 | [1] 0.575 | SHP2 N-SH2 domain L43F 0.436 | SHP2 N-SH2 domain T42A 0.364 | SHP2 N-SH2 domain T52S 0.456 | [2] 0.684

GGDGSYVSVPS [TNNI3K_Y425]
inactive: SHP2 C-SH2 domain E139D 0.58 | [1] 0.364 | SHP2 N-SH2 domain L43F 0.513 | SHP2 N-SH2 domain T42A 0.425 | SHP2 N-SH2 domain T52S 0.493 | [2] 0.7

FRGFSYDDIPD [TMEM230_Y112_YF]
inactive: SHP2 C-SH2 domain E139D 1.02 | [1] 0.77 | SHP2 N-SH2 domain L43F 0.971 | SHP2 N-SH2 domain T42A 0.998 | SHP2 N-SH2 domain T52S 1.05 | [2] 1.01

SNFRAYATEPH [TNNI3_Y29_YF]
inactive: SHP2 C-SH2 domain E139D 0.469 | [1] 0.49 | SHP2 N-SH2 domain L43F 0.482 | SHP2 N-SH2 domain T42A 0.457 | SHP2 N-SH2 domain T52S 0.464 | [2] 0.45

TGDFGYRTPGF [TNS2_Y668_A670T_YF]
inactive: SHP2 C-SH2 domain E139D 0.466 | [1] 0.414 | SHP2 N-SH2 domain L43F 0.603 | SHP2 N-SH2 domain T42A 0.451 | SHP2 N-SH2 domain T52S 0.58 | [2] 0.539

ANNQRYAFMPL [TMEM87B_Y460]
inactive: SHP2 C-SH2 domain E139D 0.92 | [1] 0.803 | SHP2 N-SH2 domain L43F 0.733 | SHP2 N-SH2 domain T42A 0.674 | SHP2 N-SH2 domain T52S 0.764 | [2] 0.885

SNFRAYATEPQ [TNNI3_Y29_H34Q_YF]
inactive: SHP2 C-SH2 domain E139D 0.551 | [1] 0.51 | SHP2 N-SH2 domain L43F 0.515 | SHP2 N-SH2 domain T42A 0.571 | SHP2 N-SH2 domain T52S 0.656 | [2] 0.44

GARGRYVMGGP [TNK1_Y277]
inactive: SHP2 C-SH2 domain E139D 0.346 | [1] 0.258 | SHP2 N-SH2 domain L43F 0.371 | SHP2 N-SH2 domain T42A 0.389 | SHP2 N-SH2 domain T52S 0.382 | [2] 0.505

PPGRSYSPFDF [TNS1_Y793_YF]
inactive: SHP2 C-SH2 domain E139D 0.836 | [1] 0.926 | SHP2 N-SH2 domain L43F 0.991 | SHP2 N-SH2 domain T42A 0.866 | SHP2 N-SH2 domain T52S 0.868 | [2] 0.648

ETPSEYLEIVR [TMEM130_Y412]
inactive: SHP2 C-SH2 domain E139D 0.974 | [1] 0.816 | SHP2 N-SH2 domain L43F 1.05 | SHP2 N-SH2 domain T42A 0.734 | SHP2 N-SH2 domain T52S 0.943 | [2] 0.948

SENPKYPEVGD [TMEM43_Y233]
inactive: SHP2 C-SH2 domain E139D 0.657 | [1] 0.529 | SHP2 N-SH2 domain L43F 0.748 | SHP2 N-SH2 domain T42A 0.767 | SHP2 N-SH2 domain T52S 0.597 | [2] 0.646

DFEGLYQEGGG [TMEM159_Y159_E154D]
inactive: SHP2 C-SH2 domain E139D 0.719 | [1] 0.678 | SHP2 N-SH2 domain L43F 0.775 | SHP2 N-SH2 domain T42A 0.722 | SHP2 N-SH2 domain T52S 0.571 | [2] 0.634

TEAGDYKLCFD [TMED1_Y103]
inactive: SHP2 C-SH2 domain E139D 0.759 | [1] 1.01 | SHP2 N-SH2 domain L43F 0.862 | SHP2 N-SH2 domain T42A 0.716 | SHP2 N-SH2 domain T52S 0.648 | [2] 1.12

VDEERYDIEGK [TNNI3_Y112_A116G]
inactive: SHP2 C-SH2 domain E139D 0.357 | [1] 0.555 | SHP2 N-SH2 domain L43F 0.341 | SHP2 N-SH2 domain T42A 0.46 | SHP2 N-SH2 domain T52S 0.431 | [2] 0.692

YRTPGYREVVI [TNS2_Y673_A670T]
inactive: SHP2 C-SH2 domain E139D 1.03 | [1] 0.876 | SHP2 N-SH2 domain L43F 1.61 | SHP2 N-SH2 domain T42A 1.36 | SHP2 N-SH2 domain T52S 1.43 | [2] 0.844

IPGMEYLVSII [TNC_Y1775_V1773M]
inactive: SHP2 C-SH2 domain E139D 1.14 | [1] 1.48 | SHP2 N-SH2 domain L43F 1.18 | SHP2 N-SH2 domain T42A 1.08 | SHP2 N-SH2 domain T52S 1.32 | [2] 1.13

From the supplement of paper PMC10369915
